Article PMC4336329 (PLoS ONE, 2015)
The whole screen tested about 310,000 compounds, of which about 14,000 (4.5%) showed an effect of 50% or more. Effects have a minus sign here. The list shows a part of the results.

target: human ether-à-go-go-related gene (hERG) potassium channel (human, UniProt Q12809); assay: primary screen, population patch clamp on CHO cells stably expressing hERG
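Further: peak tail current of the secondary pulse compared with the same well before compound.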

Sequence of human ether-à-go-go-related gene (hERG) potassium channel (Q12809 whole entry, looked up): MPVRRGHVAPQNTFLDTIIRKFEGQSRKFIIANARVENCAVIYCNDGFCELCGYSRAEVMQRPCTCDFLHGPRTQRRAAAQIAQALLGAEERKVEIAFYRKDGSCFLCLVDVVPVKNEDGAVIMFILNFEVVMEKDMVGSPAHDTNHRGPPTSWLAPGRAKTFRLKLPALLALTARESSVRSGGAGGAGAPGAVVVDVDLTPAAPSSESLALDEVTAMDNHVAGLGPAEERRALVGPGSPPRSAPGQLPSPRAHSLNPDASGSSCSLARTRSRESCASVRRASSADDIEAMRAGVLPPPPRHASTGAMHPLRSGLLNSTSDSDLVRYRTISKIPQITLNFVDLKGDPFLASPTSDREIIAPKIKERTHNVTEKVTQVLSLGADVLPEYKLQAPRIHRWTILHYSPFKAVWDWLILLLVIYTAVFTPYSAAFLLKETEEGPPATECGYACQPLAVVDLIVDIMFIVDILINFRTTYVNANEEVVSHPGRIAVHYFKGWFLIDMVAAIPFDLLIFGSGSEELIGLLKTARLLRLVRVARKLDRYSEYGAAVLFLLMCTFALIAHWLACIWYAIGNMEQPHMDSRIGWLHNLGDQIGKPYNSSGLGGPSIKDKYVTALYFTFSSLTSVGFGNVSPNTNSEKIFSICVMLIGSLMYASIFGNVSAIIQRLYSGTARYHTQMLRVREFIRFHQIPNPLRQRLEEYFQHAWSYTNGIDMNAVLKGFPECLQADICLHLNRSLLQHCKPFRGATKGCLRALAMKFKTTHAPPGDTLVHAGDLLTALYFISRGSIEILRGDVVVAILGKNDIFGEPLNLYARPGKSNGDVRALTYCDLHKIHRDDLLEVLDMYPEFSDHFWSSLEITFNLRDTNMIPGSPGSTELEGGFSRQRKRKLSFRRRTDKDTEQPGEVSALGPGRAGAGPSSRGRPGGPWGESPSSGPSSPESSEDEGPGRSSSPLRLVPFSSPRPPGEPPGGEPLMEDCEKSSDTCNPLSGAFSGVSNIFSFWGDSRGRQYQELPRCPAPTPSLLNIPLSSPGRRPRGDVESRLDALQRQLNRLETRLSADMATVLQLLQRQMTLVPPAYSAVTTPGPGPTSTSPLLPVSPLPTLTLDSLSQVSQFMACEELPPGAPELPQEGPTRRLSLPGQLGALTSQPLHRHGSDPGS

SMILES	hERG current change (%, negative = inhibition) at 10uM
CS(=O)(=O)NC1CCN(Cc2ccccc2)CC1	-2.95%
COC(=O)c1cn(S(=O)(=O)c2ccccc2)c2ccccc12	13%
CCN(CC)S(=O)(=O)c1ccc(N2CCN(C)CC2)c(NC(=O)c2cc(=O)c3ccccc3o2)c1	-18.4%
Cn1c(=O)c2c(nc(Oc3ccccc3Cl)n2C)n(C)c1=O	5.32%
Cc1cc(=O)[nH]c(NN)n1	6.39%
CCC(C)(C)NC(=O)C(c1ccncc1)N(C(=O)c1sc(C)nc1C)c1ccc(F)cc1 (centres unmarked)	30.6%
COCC(C)NC(=O)CCSc1nc(-c2ccc(OC)cc2)cc(C(F)(F)F)n1 (centres unmarked)	-44.9%
Cc1cc(C)cc(NC(=O)Cn2nnc(C(=O)NCc3ccc(F)cc3)c2N)c1	11.1%
Fc1ccccc1NC(=S)N(CCN1CCCCCC1)Cc1cccs1	-53%
O=C(Nc1sccc1C(=O)NCc1ccco1)c1cccnc1	-3.08%
COc1ccc(N2CCN(C(=O)CCS(=O)(=O)c3ccc4c(c3)CCN4C(=O)C3CC3)CC2)cc1	-6.6%
Nc1ccc(C(=O)OCc2csc(-c3ccccc3)n2)cc1[N+](=O)[O-]	25.6%
COc1ccc(CNCc2ccncc2)cc1OC.Cl	11.6%
CC(C)C1=Nc2cccc3cccc(c23)N1.Cl	1.81%
COc1ccc(NS(=O)(=O)c2ccc(N3CCOCC3)c(N)c2)cc1	0.0324%
Cc1ccc(NC(=O)C2CCCN(c3ncnc4c3nc3n4CCCCC3)C2)nc1 (centres unmarked)	-62.5%
CC1(C)CC2(CCO1)OC(=O)CC2C(=O)Nc1c(Cl)cccc1Cl (centres unmarked)	4.11%
O=C(CC1CCCCC1)N=C1SC2CS(=O)(=O)CC2N1c1ccccc1 (centres unmarked)	4.69%
O=C(/C(=C(\O)c1ccccc1)c1ncc[nH]1)c1ccccc1	5.69%

SMILES	hERG current change (%, negative = inhibition) at 10uM
BrC(=C\c1ccccc1)/C=N/N1CCN(c2ccccn2)CC1	-15.7%
Cc1cc(=O)[nH]c(SCc2nnc(-c3ccccc3)o2)n1	12.7%
O=C(c1sc2ccccc2c1Cl)N1CCN(c2ccccn2)CC1	-68.7%
Cc1ccc(CNC(=O)C2CCCN2C(=O)Nc2ccc(F)cc2)cc1 (centres unmarked)	0.282%
N#Cc1ccc(C(=O)N2CCN(S(=O)(=O)c3ccc(Br)s3)CC2)cc1	-63.5%
O=C(Nc1cc(N2CCOCC2)ncn1)c1ccccc1	-5.71%
Cc1ccc(/C(N)=N/OC(=O)Cc2cccc3ccccc23)cc1	1.46%
NS(=O)(=O)c1ccc(NC(=S)N2CCN(c3cccc(Cl)c3)CC2)cc1	3.83%
COc1ccc(Cl)cc1NC(=O)CN(C)C(=O)c1ccc(OCc2ccccc2)c(OC)c1	6.49%
Cc1ccc(C)c(SCc2nc3sc(C(=O)O)c(C)c3c(=O)[nH]2)c1	7.9%
COc1cc(OC)c(S(=O)(=O)N2CCN(C(=O)c3ccco3)CC2)cc1NC(C)=O	11.5%
Cc1ccccc1NC(=O)CN1CCc2ccccc2C1	17.5%
O=S(=O)(NC1CC1)c1ccc(S(=O)(=O)N2CCc3ccccc32)cc1	-6.24%
COc1ccc(OC)c(CN2CCN(c3ccc(S(=O)(=O)N4CCCC4)cn3)CC2)c1	-36.5%
Cc1ccccc1NC(=O)CCNS(=O)(=O)c1ccc2c(c1)CCC(=O)N2	-7.57%
CCCC(=O)NC(=S)Nc1ccc(S(=O)(=O)Nc2ccc(OCC)cc2)cc1	-5.2%
O=C(CN1C(=O)COc2ccccc21)Nc1ccc(N2CCOCC2)cc1	-3.25%
CCN1C(=O)CSC1=Nc1ccc(OC)cc1	16%
COc1c(NC(C)=O)c2ccccc2c2ccccc12	6.65%

SMILES	hERG current change (%, negative = inhibition) at 10uM
Fc1ccc(NC(=S)NCCN2CCOCC2)cc1	13.9%
CCc1ccc(S(=O)(=O)c2nnn3c2nc(N2CCOCC2)c2ccccc23)cc1	13.2%
CCn1c(SCC(=O)Nc2ccc(OC)c(OC)c2)nnc1-c1c[nH]c2ccccc12	-19.9%
CCOC(=O)N1CCN(S(=O)(=O)N2CCCC(C(=O)NCCCN3CCC(C)CC3)C2)CC1 (centres unmarked)	16.2%
COc1ccc(C2=CC3=C(Br)C(=O)C(C)(OC(=O)c4ccc(Cl)nc4)C(=O)C3=CO2)cc1 (centres unmarked)	0.675%
CC(=O)NCCSC(=O)c1ccc(F)cc1	11.3%
CCOC(=O)N1CCN(C(=O)CCc2ccc(S(=O)(=O)NC(C)(C)C)cc2)CC1	11.3%
CC(C)Oc1cccc(NC(=O)c2cccn(Cc3ccc4c(c3)OC(F)(F)O4)c2=O)c1	3.02%
CCOC(=O)c1ccc(N2C(=O)c3n[nH]c(C)c3C2c2ccc(OC)c(OC)c2)cc1 (centres unmarked)	-14.2%
CCOc1ccc(S(=O)(=O)N2CCC(C(=O)NCC3CCCO3)CC2)cc1 (centres unmarked)	-16%
CCCC/C(O)=C1\C(=O)CCCC1=NCCc1c(C)[nH]c2ccc(OC)cc12	-4.57%
O=C(NC(NCc1ccccn1)(C(F)(F)F)C(F)(F)F)c1ccco1	-1.88%
N#C/C(=C\c1ccc(-c2ccccc2)cc1)c1nc(-c2ccco2)cs1	-1.39%
C=CCSc1nnc2n(-c3ccccc3OC)c(=O)c3c4c(sc3n12)CCC4	-64.5%
CC(=O)N1CCN(C(=O)CN2C(=O)NC(C)(c3ccc4ccccc4c3)C2=O)CC1 (centres unmarked)	16.7%
COc1cccc(CNC(=O)Cn2ccc3cc(S(=O)(=O)N4CCCCCC4)ccc32)c1	4.25%
CC(C)(C)c1ccc(OCCNC(=S)Nc2ccccc2)cc1	8.17%
Cc1cc(C)cc(Nc2ccc3nonc3c2[N+](=O)[O-])c1	-2.16%
